The list shows a part of the results.
What was measured:
HSkMC = human skeletal muscle cells; experiment: cytotoxicity call (relative viability < 0.9); conditions: 10 µM
HepG2 = experiment: cytotoxicity call (relative viability < 0.9); conditions: 10 µM
S. aureus RN4220 = experiment: growth inhibition call (relative growth <= 0.2); conditions: 50 µM

Compound	cytotoxicity call (HSkMC)	cytotoxicity call (HepG2)	growth inhibition call (S. aureus RN4220)
Nc1nc(=O)c2c(CCc3ccc(C(=O)NC(CCC(=O)[O-])C(=O)[O-])cc3)c[nH]c2[nH]1.[Na+].[Na+] (stereo not drawn)	inactive	inactive	inactive
C[C@H](CO)N1C[C@H](C)[C@@H](CN(C)Cc2ccccn2)Oc2cc(C#CCN(C)C)ccc2S1(=O)=O	inactive	inactive	inactive
C[C@H](CO)N1C[C@H](C)[C@H](CN(C)C(=O)C2CCCCC2)OCCCC[C@H](C)Oc2ccc(NC(=O)CCC(F)(F)F)cc2C1=O	inactive	inactive	inactive
CC(=O)N[C@@H](CCC(=O)O)C(=O)O	inactive	inactive	inactive
Cc1noc(C)c1S(=O)(=O)N(C)C[C@H]1Oc2c(NS(=O)(=O)c3cn(C)cn3)cccc2C(=O)N([C@H](C)CO)C[C@H]1C	inactive	inactive	inactive
C[C@H]1CN([C@@H](C)CO)C(=O)c2cc(NC(=O)Cn3cnnn3)ccc2O[C@H]1CN(C)C(=O)Nc1ccc(C(F)(F)F)cc1	inactive	inactive	inactive
CO[C@H]1CN(C)C(=O)c2ccc(NC(=O)c3ccccc3)cc2OC[C@@H](C)N(C(=O)CN(C)C)C[C@H]1C	inactive	inactive	inactive
C[C@@H]1CN([C@H](C)CO)C(=O)c2cc(NC(=O)Cc3ccccc3)ccc2O[C@H]1CN(C)Cc1ccc(C(=O)Nc2ccccc2N)cc1	inactive	inactive	inactive
OCc1ccc(O)cc1	inactive	inactive	inactive
C[C@@H]1CN([C@@H](C)CO)C(=O)c2cc(NC(=O)Nc3ccccc3)ccc2O[C@@H](C)C/C=C/CO[C@H]1CN(C)S(=O)(=O)c1ccc(F)cc1	inactive	active	inactive
O=C(C[C@@H]1CC[C@@H]2[C@H](COC[C@@H](O)CN2C(=O)Nc2ccc(Cl)cc2)O1)NC1Cc2ccccc2C1	inactive	active	inactive
O=C(N[C@@H]1CC[C@@H](CCNS(=O)(=O)c2ccc(F)cc2)O[C@@H]1CO)C1CC1	inactive	inactive	inactive
CN(C)CCCNC(=O)C[C@H]1CC[C@@H](NS(=O)(=O)c2ccccc2)[C@H](CO)O1	inactive	inactive	inactive
COc1ccc(NC(=O)N(C)C[C@@H]2Oc3ccc(NS(=O)(=O)c4c(C)noc4C)cc3C(=O)N([C@@H](C)CO)C[C@@H]2C)cc1	inactive	active	inactive
CN1C(=O)CO[C@H]2CN(C(=O)NCc3cccnc3)C[C@@H]21	inactive	inactive	inactive
COC1C(OC(N)=O)C(O)C(Oc2ccc3c([O-])c(NC(=O)c4ccc(O)c(CC=C(C)C)c4)c(=O)oc3c2C)OC1(C)C.[Na+] (stereo not drawn)	inactive	inactive	active
CN1CCN(C(=O)C[C@@H]2CC[C@@H]3[C@H](COC[C@@H](O)CN3C(=O)Nc3cc(Cl)cc(Cl)c3)O2)CC1	inactive	inactive	inactive
C[C@@H]1CN([C@@H](C)CO)C(=O)c2cccc(NC(=O)Nc3ccc(C(F)(F)F)cc3)c2O[C@@H]1CN(C)S(=O)(=O)c1ccc(F)cc1	inactive	inactive	inactive
COc1ccc(CN(C)C[C@H]2OCCCC[C@@H](C)Oc3ccc(NC(=O)CCC(F)(F)F)cc3C(=O)N([C@@H](C)CO)C[C@@H]2C)cc1	inactive	inactive	inactive
C[C@@H]1CCCCO[C@@H](CN(C)Cc2ccncc2)[C@H](C)CN([C@@H](C)CO)C(=O)c2cc(NC(=O)Nc3cccc4ccccc34)ccc2O1	inactive	inactive	inactive
CC(C)NC(=O)N[C@@H]1CC[C@H](CCN)O[C@H]1CO	inactive	inactive	inactive
CCOC(=O)c1cc(=O)c2cc([C@@H]3CC(=O)N(C(=O)OCc4ccccc4)[C@@H]3C(=O)Nc3cccc4cccnc34)ccc2o1	inactive	inactive	inactive
C[C@H]1CN([C@@H](C)CO)C(=O)Cc2cc(NC(=O)Nc3ccc(C(F)(F)F)cc3)ccc2O[C@@H]1CN(C)Cc1ccc(Cl)c(Cl)c1	inactive	inactive	inactive
C[C@@H]1CCCCO[C@@H](CN(C)C(=O)Nc2cccc3ccccc23)[C@H](C)CN([C@@H](C)CO)C(=O)c2cc(NS(=O)(=O)c3cccs3)ccc2O1	inactive	inactive	inactive
COc1ccc2c3c(n(c2c1)C)[C@H](CO)N(C[C@]13CCN(CC1)CC1CCOCC1)C(=O)Cc1ccccn1	inactive	inactive	inactive
C[C@@H]1CCCCO[C@H](CN(C)CC2CC2)[C@H](C)CN([C@@H](C)CO)C(=O)c2cc(NS(C)(=O)=O)ccc2O1	inactive	inactive	inactive

— the antibiotic and cytotoxicity screens of Wong et al. (2023)
